# According to PubChem BioAssay AID1645882 (National Center for Advancing Translational Sciences (NCATS), 2021):
# In all, about 16,000 compounds went through this assay and about 120 (0.75%) were called active. Not shown: some 4% with an inconclusive outcome. The call rests on the fitted dose curve; in most records, active means well fitted inhibition curve with a large enough effect; inconclusive means small, poorly fitted or top-dose-only effect; inactive means no such curve, though single readings can be large or run the other way. Some of the results follow. Where a SMILES comes first, the peptide text is derived from it. Bridges are numbered along the chain shown (N, C = ends).
# Molecular target: Rap guanine nucleotide exchange factor 3 (Homo sapiens) (UniProt O95398)
# Sequence of UniProt O95398 (O95398 whole entry, looked up): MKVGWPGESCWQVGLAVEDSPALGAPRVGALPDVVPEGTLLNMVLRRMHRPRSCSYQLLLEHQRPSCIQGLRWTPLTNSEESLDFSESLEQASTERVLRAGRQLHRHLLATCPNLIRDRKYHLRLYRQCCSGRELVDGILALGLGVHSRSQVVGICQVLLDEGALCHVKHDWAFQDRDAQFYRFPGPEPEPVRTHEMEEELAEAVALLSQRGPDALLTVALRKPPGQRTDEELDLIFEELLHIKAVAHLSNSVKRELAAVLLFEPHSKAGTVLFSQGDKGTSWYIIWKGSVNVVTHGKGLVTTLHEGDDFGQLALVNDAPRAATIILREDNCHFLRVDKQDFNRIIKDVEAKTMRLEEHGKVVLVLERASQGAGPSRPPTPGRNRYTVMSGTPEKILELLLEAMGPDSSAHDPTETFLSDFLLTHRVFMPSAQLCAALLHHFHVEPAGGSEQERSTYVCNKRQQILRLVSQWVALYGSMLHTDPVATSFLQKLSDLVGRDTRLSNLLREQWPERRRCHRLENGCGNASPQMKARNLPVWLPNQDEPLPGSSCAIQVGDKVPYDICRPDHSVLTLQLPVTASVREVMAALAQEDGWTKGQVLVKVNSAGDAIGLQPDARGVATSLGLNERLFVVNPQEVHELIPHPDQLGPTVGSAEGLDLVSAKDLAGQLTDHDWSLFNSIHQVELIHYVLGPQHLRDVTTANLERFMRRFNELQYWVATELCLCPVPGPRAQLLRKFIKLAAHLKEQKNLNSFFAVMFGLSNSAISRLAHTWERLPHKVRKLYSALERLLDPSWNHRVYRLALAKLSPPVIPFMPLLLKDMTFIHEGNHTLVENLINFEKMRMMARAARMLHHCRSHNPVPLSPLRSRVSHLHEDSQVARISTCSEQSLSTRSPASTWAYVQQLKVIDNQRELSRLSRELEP
# Experiment: Validation qHTS for antagonist of cAMP-regulated guanine nucleotide exchange factor 3 (EPAC1); further: nearly all actives have a fitted effect of over 75% in size;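 on activity change, negative = inhibition: plate controls were DMSO for no effect and ATA control for full effect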
# Conditions: EPAC1 Rap1B-BODIPY-GDP exchange, fluorescence; series mostly up to 150 µM; activity change, negative = inhibition: at the top concentration
# Outline: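 EPAC1 (100 nM) mixed with 250 nM RAP1B-BODIPY-GDP and 50 uM GDP; compounds in concentration series, 5 min at room temperature. Fluorescence (ex 480/em 540 nm) read every 5 min for 30 min; normalized to ATA control and DMSO.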
# Potency means the concentration at half of the fitted maximal effect.
Compound,"activity change, negative = inhibition",Potency
CS(=O)(=O)N1CCC2(CC1)CN(C(=O)Nc1cccc(F)c1)C2,inactive: 19.1%,
CC(C)(N=NC(C)(C)C(=N)N)C(=N)N,inactive: -0.214%,
COc1ccc2[nH]cc(CCNc3ccnc(-c4cccc(NS(C)(=O)=O)c4)n3)c2c1,inactive: 15.8%,
OC[C@H]1O[C@@H](O[C@H]2[C@H](O)[C@@H](O)[C@H](O)O[C@@H]2CO)[C@H](O)[C@@H](O)[C@@H]1O,inactive: 16.1%,
COc1cc(C(=O)NS(=O)(=O)c2ccccc2C)ccc1Cc1cn(C)c2ccc(NC(=O)OC3CCCC3)cc12,,active: 89.1 µM
O=C(c1csnn1)N1CCC2(CCN(Cc3nccs3)CC2)CC1,inactive: 10.4%,
Cc1cc(CNC(=O)CCN2Cc3cc(Cl)ccc3OC(C)C2)nn1C (centres undefined),inactive: 4.43%,
COc1ccc(CN2CCN(C(C)=O)CC2)cc1OC1CCN(C(=O)c2ccc3[nH]c(C)c(C)c3c2)CC1,inactive: 3.94%,
CCCCCCCCCCCCC/C=C/[C@@H](O)[C@H](CO)NC(C)=O,inactive: -20.1% [at 15.3 µM],
CC(C)NC(=O)N1CCC2(CC1)CCN(C(=O)c1cc(C(F)(F)F)cc(C(F)(F)F)c1)CC2,inactive: 14.8%,
COc1ccccc1CN1CCCC2(CCN(C(=O)c3c(C)noc3C)CC2)C1,inactive: 11.9%,
O=C(O)c1cc(=O)c2ccccc2o1,inactive: -7.36%,
CC(C)NC(=O)c1cn(C2CCC(NC(=O)C(C)(C)C)CC2)nn1 (centres undefined),inactive: 20%,
CN(CCc1ccc(Cl)c(Cl)c1)CCN1CCCCCC1,inactive: -1.95%,
COc1ccc2oc(-c3ccccc3)c(OC)c(=O)c2c1,inactive: 4.07%,
COc1ccc2ccc(=O)oc2c1,inactive: 6.21%,
OC[C@H]1O[C@@H]2O[C@H]3[C@H](O)[C@@H](O)[C@@H](O[C@H]4[C@H](O)[C@@H](O)[C@@H](O[C@H]5[C@H](O)[C@@H](O)[C@@H](O[C@H]6[C@H](O)[C@@H](O)[C@@H](O[C@H]7[C@H](O)[C@@H](O)[C@@H](O[C@H]1[C@H](O)[C@H]2O)O[C@@H]7CO)O[C@@H]6CO)O[C@@H]5CO)O[C@@H]4CO)O[C@@H]3CO,inactive: 16.1%,
NCCCC[C@H](NC(=O)[C@@H]1CCCN1C(=O)[C@@H]1CSSC[C@H](NC(=O)CNC(=O)CNC(=O)CN)C(=O)N[C@@H](Cc2ccc(O)cc2)C(=O)N[C@@H](Cc2ccccc2)C(=O)N[C@@H](CCC(N)=O)C(=O)N[C@@H](CC(N)=O)C(=O)N1)C(=O)NCC(N)=O (H-GGGCYFQNCPKG-NH2; disulfide 4-9),inactive: -9.37%,
CCOC(=O)[C@@H](N)CS,inactive: -14.8%,
Oc1ccc(Cl)cc1Cc1cc(Cl)ccc1O,inactive: -12.4%,

Compound,"activity change, negative = inhibition",Potency
NS(=O)(=O)c1cc(C(=O)O)c(NCc2ccco2)cc1Cl,inactive,
CCc1ccc(S(=O)(=O)O)cc1,inactive: -8.42%,
COCCn1c(=O)c(C)nc2cnc(N3CCN(C)CC3)nc21,inactive: 16.4%,
CCCCC/C=C\CC(O)/C=C/c1cccc(CC(O)CCCCO)n1 (centres undefined),inactive: -8.73% [at 75.8 µM],
CC1=CC2C(C(C)C)CCC(C)(O)C2CC1 (centres undefined),inactive: 7.33%,
CC[C@@]1(O)C(=O)OCc2c1cc1n(c2=O)Cc2cc3c([N+](=O)[O-])cccc3nc2-1,inactive: -8.03%,
CS(=O)(=O)c1ccc([C@@H](O)[C@@H](COC(=O)CN)NC(=O)C(Cl)Cl)cc1,inactive: 7.83%,
COC(=O)[C@H]1[C@H]2C[C@@H]3c4[nH]c5cc(OC)ccc5c4CCN3C[C@H]2C[C@@H](OC(=O)COc2ccc(OC)cc2)[C@@H]1OC,inactive: -9.7%,
c1ccc2c(N3CCNCC3)nc(-c3ccoc3)nc2c1,inactive: 14.2%,
NC(C(=O)O)c1ccc(P(=O)(O)O)cc1 (centres undefined),inactive: 8.63%,
Cc1ccc(CN2CCC(=O)N(Cc3ccccn3)CC2)c(C)c1,inactive: 12.6%,
Cn1c(=O)c2[nH]c(C3CCCC3)nc2n(C)c1=O,inactive,
NC(=O)C1CCCN(Cc2ccc3c(c2)CN(Cc2ccccc2)CCO3)C1 (centres undefined),inactive: -11.4%,
COc1ccc(NC(=O)N2CC[C@@]3(CCCN(C(=O)c4c(C)noc4C)C3)C2)cc1,inactive: 13.4%,
CC(=O)c1ccc(F)c(-c2cc(C)cc3c2OC(CNC(=O)Cn2nc(C)nc2C)C3)c1 (centres undefined),inactive: 12.9%,
COCCCNC(=O)c1cnn(-c2ncc3c(n2)-c2ccccc2CCC3)c1C,inactive: -8.82%,
CC(C)COCC(CN(Cc1ccccc1)c1ccccc1)N1CCCC1 (centres undefined),inactive,
O=C(Oc1ccccc1)N1CCC[C@@]2(CCN(c3ccccn3)C2)C1,inactive: 10.1%,
COc1ccc(CNc2ncnc3ccc(-c4ccccc4C#N)cc23)c(OC)c1,inactive: -17.2%,
NC(=O)c1ncn([C@@H]2O[C@H](CO)[C@@H](O)[C@H]2O)n1,inactive,

Compound,"activity change, negative = inhibition",Potency
CCC(CC)(CC(=O)Nc1cccc(/C=C/c2nc(C3CCC3)cs2)c1)C(=O)O,inactive: 8.67%,
O=C1CC(C(=O)N2CCOc3ccc(CN4CCC(Oc5cccnc5)CC4)cc3C2)c2ccccc21 (centres undefined),inactive: 23.9%,
COc1ccccc1CN1CCC2(CCNCC2)CC1,inactive: -3.17%,
CN(C)c1ccc(C=O)c(Cl)c1,inactive: -11.9%,
CCn1nc(C)c(CN2CCC3(CCC(CNC(=O)c4ccccc4)O3)CC2)c1C (centres undefined),inactive: 13.4%,
COC(=O)/C=C/c1ccc2c(c1)S(=O)(=O)N(c1cccc(OC)c1)[C@H]2CC(=O)OC,inactive: -4.64%,
CCOc1ccc2c(c1)C(C)=CC(C)(C)N2,inactive,
CCOC(=O)[C@H](CCc1ccccc1)N[C@@H](C)C(=O)N1[C@H](C(=O)O)C[C@@H]2CCC[C@@H]21,inactive: 6.45%,
COCCn1c(=O)c(-c2cccs2)nc2cnc(OCc3ccccc3)nc21,inactive: 14.7%,
COc1ccc(C2COc3c(ccc(O)c3OC)C2)c(OC)c1O (centres undefined),inactive: -9.01%,
COc1cc(=O)n2c(c1C(=O)N(C)Cc1nccs1)CCN(Cc1cccc(F)c1F)CC2,inactive: 4.97%,
COc1ncc2nc(-c3cn(C)c4ccccc34)c(=O)n(CCC#N)c2n1,inactive: 22.2%,
COc1ccccc1CC(=N)N1C[C@@H]2C(=O)CCC(c3ccccc3)(c3ccccc3)[C@@H]2C1,inactive: 6.77%,
CNS(=O)(=O)Cc1ccc2[nH]cc(CCN(C)C)c2c1,inactive: 18.8%,
O=c1c(O)c(-c2ccc(O)c(O)c2)oc2cc(O)ccc12,inactive,
Cc1nc2cnc(N3CCN(C)CC3)nc2n(C)c1=O,inactive: 0.32%,
Cc1nc(C)n(CC(=O)NCC2Cc3cc(-c4ccsc4)cc(Cl)c3O2)n1 (centres undefined),inactive: 22%,
CN(C)c1ncc2nc(CCc3ccccc3)c(=O)n(C3CC3)c2n1,inactive: -21.3%,
CC(C)C[C@@H](CO)N1CCN(Cc2cccnc2)CCC1=O,inactive: 12.4%,
